The source of these data is the RNAGym collection of RNA variant scans (doi:10.7554/elife.90254).

B1: LINE1-mini (parent)
chain: GGCAGAGCUCAACACAGCGUGGCAAAGUGGCUGUGGCUAGACUGCC

Read counts are not given, so values of variants with three or more changes are uncertain.

The variants in the series derive from B1. The experiment in a line: self-cleavage, relative activity (ratio to wild type); higher = more cleavage; in vitro, sequencing; the parent is a self-cleaving ribozyme.
Take C10U G17C C18A G44A: the self-cleavage was 0.03.
Turning to G5C C15A G29C C42U, the self-cleavage turned out to be 0.03.
As for G5C G29A C37A, the self-cleavage came to 0.03.
For the variant A24C G36C A41U C45A, the self-cleavage stood at 0.
Consider G2C A4C G29A, for which the self-cleavage came to 0.
With G2A A6C U9G C46A the figure was 0.06; with C10G G22U G33U, 0.03.
Take A4U C8G A11U G19U C23U A41C: the self-cleavage worked out at 0.
On to C3U G7U C46G, for which the self-cleavage came out at 0.04.
In the case of C10G G36A C45A, the self-cleavage was determined as 0.02.
Regarding G2A C10A G22C G29U G33C G44C C45A, the self-cleavage stood at 0.01.
Consider A24C G27U C46U, for which the self-cleavage is 0.23.
Take A26U C37A G44C: the self-cleavage was 0.
On to G19C G22C A24G, for which the self-cleavage came out at 0.39.
As for G17C U34C U38G G40A, the self-cleavage came to 0.08.
For the variant C10A A24C U32G G36A G40C, the self-cleavage was determined as 0.07.
Turning to A4C A11U C15A A16G G44C, the self-cleavage turned out to be 0.01.
Consider A6U A14G G33U G40U, for which the self-cleavage amounted to 0.14.
On to U20C A24U C45G, for which the self-cleavage was found to be 0.04.
Turning to G5C C10U G29A A41U C42A, the self-cleavage was 0.03.
In the case of G19A G30U G33C, the self-cleavage was determined as 0.11.
Regarding C18A A26C U34G C37A A41G C42A, the self-cleavage stood at 0.01.
For the variant A4C G40U C42A, the self-cleavage is 0.18.
Turning to G17A C23U A26C C45A, the self-cleavage worked out at 0.14.
With C13A G29U U32A G35C A41G, the self-cleavage is 0.1.
On to A6G C8U C15G A26U, for which the self-cleavage worked out at 0.2.
With C3A G40A C45A the figure was 0.13.
For G1C G5A C46U the value was 0.05; for G7U U9C C13U A14G, 0.02; for G1U C8A G21A, 0.21.
On to G30A G33U G36A, for which the self-cleavage came to 0.02.
Turning to A4G G7U A24G G27U, the self-cleavage came to 0.05.
Regarding C13U G17A G22U G44U, the self-cleavage turned out to be 0.04.
For C3A C13U G35A the value was 0.25; for G2C C3G U9A U28C G36A U38C A39U, 0.49; for C3A C10A C13G G30C, 0.04.
In the case of A12G A26G C31U, the self-cleavage was 0.
C3A C8U C10A: the self-cleavage was 0.04.
Turning to C10A G22A A24G G35C, the self-cleavage turned out to be 0.02.
Take C13A G33U G36C: the self-cleavage is 0.01.
Consider C3U A4G A26U U28G G36U A41U, for which the self-cleavage amounted to 0.07.
Regarding G1C G7U G19A C37U, the self-cleavage is 0.
With C3A U9C C37A the figure was 0.05; with G1C A4U A16C U32A, 0.03.
With U20A A26U U43G, the self-cleavage was found to be 0.05.
For C31G C42U U43A the value was 0.03; for C13G C15U A26U, 0.05.
For the variant A4C A25C G30C, the self-cleavage came out at 0.09.
With C8G G33U C45A the figure was 0.24.
Consider G7C A12G U28C G30A, for which the self-cleavage worked out at 0.01.
On to G19U C31U U34A, for which the self-cleavage is 0.01.
For the variant G19A G22C C31U C37A, the self-cleavage stood at 0.06.
With G22A C23A A39C the figure was 0.05; with G19C A26U G40C, 0.05; with C3U U20G C42U G44C, 0.08.
Turning to C8U C31U G36C, the self-cleavage turned out to be 0.04.
A4C G17U G36C: the self-cleavage was determined as 0.1.
In the case of A12G C15U G17C C31A, the self-cleavage is 0.09.
For U9C A11C G21U G29A C45G the value was 0.01; for U20A G22A C31A, 0.07.
Consider C23U G27C C46G, for which the self-cleavage was 0.46.
C3A G27A C31A: the self-cleavage was determined as 0.11.
With A26U U38A C45U the figure was 0.37.
Consider C3G G5C C45U, for which the self-cleavage was determined as 0.08.
With A11U G21U U28A G35C, the self-cleavage came out at 0.03.
For G1C C10A A25U the value was 0.02; for G5C A11U A16U, 0.04; for A4C G17A G36U, 0.34.
On to G22C C31G U32A G40C, for which the self-cleavage is 0.01.
For G7C C8U A16C G29U, the self-cleavage was 0.18.
Regarding C8U G36C G40C, the self-cleavage worked out at 0.25.
Consider A12C G21A U28G C37U, for which the self-cleavage came to 0.01.
With G7U G29U G36A, the self-cleavage came to 0.09.
As for G1U A4G A16C, the self-cleavage is 0.04.
Take G5U U28A U34G C42A: the self-cleavage is 0.03.
A4C A24C A25U G40C C42U G44A: the self-cleavage came to 0.
A4G G21A U32A: the self-cleavage came out at 0.02.
In the case of G1C C18A A39U, the self-cleavage amounted to 0.03.
With G22C C31A U34G the figure was 0.13; with C8A G40C A41U G44U, 0.28.
On to G21A G33U A41U, for which the self-cleavage was found to be 0.13.
As to G27U G29C U38C C45A, the self-cleavage came out at 0.03.
With G1A A4C C8A G40C, the self-cleavage stood at 0.27.
As for C10U A11C G22C, the self-cleavage was 0.02.
On to C13U C23A C31A, for which the self-cleavage came to 0.06.
With U9A C18G A39G, the self-cleavage was 0.02.
As to G33U G40C C42U, the self-cleavage was 0.11.
Regarding G17A G21A G33A C37G, the self-cleavage was 0.05.
For G1U A6C C31U G44A the value was 0.02.
For the variant C10A G22A C45U, the self-cleavage came out at 0.03.
Take G5A G22U G29A G36C: the self-cleavage amounted to 0.04.
With G1A G5C A24U A39G, the self-cleavage is 0.05.
As to G1C C37U A39U, the self-cleavage is 0.06.
Turning to A14G G17A G19A G21C A25U, the self-cleavage was 0.13.
For C8G C31G U38A the value was 0.02; for C3G A6G A24C G35C, 0.03.
As for C3U A6G G21U, the self-cleavage was determined as 0.14.
Turning to G21U G33U C37A A41G, the self-cleavage was found to be 0.07.
With C3U G19U A41U C42A G44U the figure was 0.22; with A14G C31U U38C, 0.08.
Turning to G2U A6C C10A, the self-cleavage turned out to be 0.01.
Regarding A16G G21U G36U, the self-cleavage worked out at 0.03.
Regarding U9A G30C G33C G36U A39U C42G C46A, the self-cleavage stood at 0.
U20G A26C G36C: the self-cleavage is 0.09.
For C13U C23A C42G C45G the value was 0.01; for C3A C13U C42G, 0.11.
For the variant G7U A11G G29U A41G, the self-cleavage is 0.01.
With G1U C15G G22A, the self-cleavage worked out at 0.04.
C3A A14C G27C: the self-cleavage amounted to 0.13.
G5C G19U A25U G30A A39C A41C: the self-cleavage was found to be 0.16.
Take G1A U9A C10A G21U C37G C45G: the self-cleavage turned out to be 0.03.
As for U20G A26C G33U C42G, the self-cleavage amounted to 0.04.
In the case of G1A U9C U28C G30C U32A G35U, the self-cleavage came out at 0.02.
With C15G C23A A26G U38G the figure was 0.34; with G7C A11U U20G G35A, 0.03; with G21U C31A C46U, 0.45.
Consider G5A A11G G35U, for which the self-cleavage is 0.04.
As for G2A A11U G21U, the self-cleavage was found to be 0.17.
In the case of A14G U34G G40U C45U, the self-cleavage is 0.
Consider G7C C10G A12G, for which the self-cleavage is 0.01.
C13U G33A A41U: the self-cleavage turned out to be 0.24.
For the variant G2U C13U A14C U20G A26G C31G A39C, the self-cleavage is 0.
C8G A14C G19A G29A C31A: the self-cleavage is 0.03.
For the variant G2C C13G G19A G21A, the self-cleavage was determined as 0.03.
With A11U A12G U34G, the self-cleavage turned out to be 0.
With C13A C18U G36U A39G, the self-cleavage turned out to be 0.19.
C3G C10A C18A: the self-cleavage turned out to be 0.02.
As to G2U G7A A39G G40C, the self-cleavage is 0.02.
Take C8G A24C C37U C42G: the self-cleavage worked out at 0.02.
With C15A G27U C37U, the self-cleavage came to 0.02.
As for A6C C10G C15A G27U C46G, the self-cleavage came out at 0.01.
On to C3G U9G A14U, for which the self-cleavage is 0.13.
As to C3U C10A A39C, the self-cleavage stood at 0.05.
As for G5A A24U G29C, the self-cleavage was 0.01.
With A16C G35U A41C the figure was 0.02; with C3G G29C G33A G40A, 0.08; with G5A U34C G36A A39C, 0.08.
With U9A G30U C31U U34G G36A U38A C45A the figure was 0.07; with A16C C18U C42A, 0.02.
In the case of C10G A12U A16C A25C C42G, the self-cleavage is 0.01.
G1U C10A A25G: the self-cleavage came out at 0.02.
C8A A12U G35U: the self-cleavage is 0.1.
Take C10U C18U U38C: the self-cleavage amounted to 0.58.
Turning to C13U C18A A25C, the self-cleavage stood at 0.02.
In the case of C8G U28A G33C C46G, the self-cleavage stood at 0.03.
With A14U A24C C42G, the self-cleavage is 0.05.
Regarding G1A C15G G17U, the self-cleavage amounted to 0.06.
On to G1C A14U G30U G33U G36U U43C, for which the self-cleavage was 0.04.
For G2A G17A G30A, the self-cleavage turned out to be 0.19.
Consider C8U C18G A41U U43G, for which the self-cleavage was found to be 0.04.
Take C15U A26G G27U G29U A39C: the self-cleavage was determined as 0.13.
For the variant C15A A16U G21A, the self-cleavage was 0.18.
For A6G G7U C10U G19A A25U A39U A41G C46A the value was 0.03.
With G19A A26U C46U the figure was 1.09.
On to C18U G36C A39G C42A C45G, for which the self-cleavage was 0.02.
As to G2C A12U C23G, the self-cleavage was determined as 0.02.
For A16G G21U A24U A25U C42A the value was 0.02; for G27A U38G G44U C45U, 0.03; for G5U C13A U43G, 0.01.
Turning to G7A C31A U43A C46G, the self-cleavage is 0.25.
As to C10U G17C C18A U43G G44U, the self-cleavage was 0.05.
Take G17U U20A A25C: the self-cleavage amounted to 0.07.
With C8U C15U C18A, the self-cleavage was 0.04.
Consider C3U A16G U20C A24C U34C A39U U43G, for which the self-cleavage turned out to be 0.
Regarding G19C G27U G36A G40C, the self-cleavage turned out to be 0.16.
Take G30A U32C G35U: the self-cleavage came out at 0.04.
With A14U C18G U20A U38A G44A the figure was 0.16.
